Experimental data published in the DeepSol protein solubility set.

assay: soluble on expression in E. coli; label from the status in PepcDB or PDB records

Row | Sequence | soluble on expression in E. coli
1 | GSTYHLDVVSAEQQMFSGLVEKIQVTGSEGELGIYPGHAPLLTAIKPGMIRIVKQHGHEEFIYLSGGILEVQPGNVTVLADTAIRGQDLDEARAMEAKRKAEEHISSSHGDVDYAQASAELAKAIAQLRVIELTKKAM | soluble
2 | MKLIVGMTGATGAPLGVALLQALREMPNVETHLVMSKWAKTTIELETPYSARDVAALADFSHNPADQAATISSGSFRTDGMIVIPCSMKTLAGIRAGYADGLVGRAADVVLKEGRKLVLVPREMPLSTIHLENMLALSRMGVAMVPPMPAFYNHPETVDDIVHHVVARVLDQFGLEHPYARRWQGLPQARNFSQENE | soluble
3 | MPINKLRKRLGDLLVEEGIVSEAQLEQALNAQKNTGRRLGDTLISLGFLSETQLLNFLAQQLSLPVIDLSRAHVDIDAVPLLPEVHARRLRALVIGRSGDTLRIAMSDPADLFAQEALLNQLPDYGFEFVIAPEKQLVDGFDRYYRRTKEIVSFAEQLHAEHKTNDSFDFEITDSDSDEVTVVKLINSLFEDAIQVGASDIHIEPDANVLRLRQRIDGVLHETLLHEVNIASALVLRLKLMANLDISEKRLPQDGRFNIRVKGQSVDIRMSTMPIQHGESVVMRLLNQSAGVRKLEESGIPPHLLLRLRHQLKRPHGMILVTGPTGSGKTTTLYGALNELNTSGKKIITAEDPVEYRISRINQVQVNPKINLDFSTLLRTFLRQDPDIILVGEMRDQETVEIGLRAALTGHLVLSTLHTNDAVDSALRLIDMGAPGYLVASAVRAVVAQRLVRKVCPDCSGHDEVDEARRQWLVTRFPNQAAAKFTRGRGCQNCNLTGYRGRIGVFEMLELDQPMMDCLRANDAVAFSKAARSNTDYKPLLASAMELALQGIVSLDEVMSLGEGDSSGLVEPIYL | not soluble
4 | MRGSHHHHHHTDPALRAMENYKHTTVLLDEAVNGLNIRPDGIYIDGTFGRGGHSRLILSQLGEEGRLLAIDRDPQAIAVAKTIDDPRFSIIHGPFSALGEYVAERDLIGKIDGILLDLGVSSPQLDDAERGFSFMRDGPLDMRMDPTRGQSAAEWLQTAEEADIAWVLKTYGEERFAKRIARAIVERNREQPMTRTKELAEVVAAATPVKDKFKHPATRTFQAVRIWVNSELEEIEQALKSSLNVLAPGGRLSIISFHSLEDRIVKRFMRENSRGPQVPAGLPMTEEQLKKLGGRQLRALGKLMPGEEEVAENPRARSSVLRIAERTNAGLCGR | soluble
